Hit rate of the full screen: of about 120,000 compounds, about 5,300 (4.4%) were called active. Inconclusive means that the source gave no clear call. Such entries were picked first, then a sample of the others. Calls come from the whole dose curve; as a rule, active = well fitted inhibition curve with a large enough effect; inconclusive = small, poorly fitted or top-dose-only effect; inactive = no such curve, though single readings can be large or run the other way. A potency beside an inconclusive call is a rough fit, not a confirmed value.
Assay: qHTS Primary assay for Inhibitors of Plasmodium falciparum Dd2 growth in vitro; note: nearly all actives have a fitted effect of over 65% in size;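 for activity, negative = inhibition: plate controls were DMSO vehicle for no effect and reference drug for full effect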
Settings: P. falciparum Dd2 growth, SYBR Green, 72 h; activity, negative = inhibition: at 28.9 µM (top of the series) unless noted; series mostly up to 28.9 µM
In short: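 Readout: SYBR Green fluorescence, 485 nm excitation, 535 nm emission, after ~16 h lysis at 37C. Before that, Dd2-infected red cells (2.5% hematocrit) grew 72 h with compound, 29 uM top final concentration.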
Potency is the fitted concentration of half-maximal effect; tags give direction and shape of the fitted curve.

Structure (SMILES)	Potency	outcome	activity, negative = inhibition
CCN(C(=O)c1cc2c(=O)n(CC)c3ccccc3c2s1)c1cccc(C(F)(F)F)c1	inconclusive: 10 µM [inhibitor, single point]	–	–
Cc1noc(-c2cn(C3CCN(C(=O)Cc4ccsc4)C3)nn2)n1 (centres undefined)	–	inactive	–
Cn1nc(-c2ccc(OCC(=O)Nc3ccc(Cl)cc3)cc2)c2ccccc2c1=O	inconclusive: 10 µM [inhibitor, single point]	–	–
Cc1ccc(CN2C(=O)C(=O)c3cc(Br)cc(C)c32)cc1	inconclusive: 11.2 µM [inhibitor, single point]	–	–
CCOc1ccc(-n2c(=O)c3c(C)c(C)sc3n(CC(=O)Nc3ccc(CC)cc3)c2=O)cc1	inconclusive: 10 µM [inhibitor, single point]	–	–
COCC(=O)Nc1ccc(-c2c(C(C)C)nn(-c3cccc(F)c3)c2OC(C)=O)cc1	inconclusive: 1.58 µM [inhibitor, full curve, poor fit]	–	–
CCC(C(=O)Nc1ccccc1)n1nc(-c2cc(C)ccc2C)ccc1=O (centres undefined)	inconclusive: 20 µM [inhibitor, single point]	–	–
COCc1ncc(CN2CCC(c3[nH]ncc3-c3ccccc3C)CC2)cn1	inconclusive: 1.12 µM [inhibitor, partial curve, poor fit]	–	–
O=C(CC1CCCC1)N1CCC(N2CC(OCC3CC3)C23CCOCC3)CC1 (centres undefined)	–	inactive	–
CNC(=O)c1cc(-c2ccc(N3CCOCC3)cc2)cc2c1OCCN2Cc1cccnc1	active: 10 µM	–	–
COc1cc(F)cc(-c2ncc3c(n2)OCCN(C)C3=O)c1	–	inactive [at 44.1 µM]	–
CCc1ccccc1NC(=O)CSc1nc2n[nH]c(C)c2c(=N)n1-c1cccc(C)c1	–	–	inactive: -10.3%
CC(C)CN(Cc1cccnc1)C1CN(S(=O)(=O)Cc2ccccc2F)C1	inconclusive: 17.8 µM [inhibitor, partial curve, poor fit]	–	–
COc1ccc(NC(=O)c2ccc3c(c2)N(C)C2CCCCN2C3=O)cc1Cl (centres undefined)	inconclusive: 0.398 µM [inhibitor, single point]	–	–
O=C(NCc1cccs1)c1ccc(CSc2nc3cccnc3n2Cc2ccc(F)cc2)cc1	inconclusive: 17.8 µM [inhibitor, single point]	–	–
COCC1CN(C)CC12CCN(C(=O)c1ccc(OC(F)(F)F)cc1)CC2 (centres undefined)	–	inactive	–
CCOc1ccc(CN(Cc2cccc(Oc3ncccn3)c2)C2CC2)cc1	inconclusive: 14.1 µM [inhibitor, single point]	–	–
O=C1NC(=NC2CCCCC2)C2(CCN(CC3CCCCC3)CC2)N1c1cc(F)cc(F)c1	–	–	inactive: 9.57%
Cc1ccn2c(Nc3ccc4c(c3)OCO4)c(-c3ccc(Cl)cc3)nc2c1	inconclusive: 17.8 µM [inhibitor, single point]	–	–
CN1CCN(c2cc(=O)c3ccnc(N4CCOCC4)c3o2)CC1	inconclusive: 0.501 µM [inhibitor, full curve, poor fit]	–	–
c1ccc(-c2nnc3n2CCN(Cc2ccc4ccccc4c2)C3)cc1	inconclusive: 22.4 µM [inhibitor, single point]	–	–
CN1C(=O)c2cncnc2OCC1CNC(=O)Cc1cccs1 (centres undefined)	inconclusive: 1.26 µM [inhibitor, full curve, poor fit]	–	–

Structure (SMILES)	Potency	outcome	activity, negative = inhibition
CC(C)NC(=O)c1cc(-c2ccccc2F)cc2c1OCCN2Cc1cccnc1	–	–	inactive: -17.3% [at 44.1 µM]
CCCCCN(CCC(=O)NCCCOC)C(=O)c1ccoc1	–	–	inactive: -9.67%
O=C(Cc1ccc(C(F)(F)F)cc1)N1CC(COc2ccccc2)C2(C1)CN(C(=O)c1cn[nH]c1)C2 (centres undefined)	–	inactive	–
O=C(N1CCOCC1)N1C2CCC1CN(c1ccc(C(F)(F)F)cc1)C2	inconclusive: 14.1 µM [inhibitor, partial curve, poor fit]	–	–
COc1ccc(Cl)cc1NC(=O)CN1C(=O)NC2(CCC(C)CC2)C1=O (centres undefined)	inconclusive: 12.6 µM [inhibitor, single point]	–	–
O=C(NCCc1ccccc1)N1CCC(c2noc(-c3ccccc3)n2)C1 (centres undefined)	–	inactive [at 5.79 µM]	–
CC(C)CNc1ccc2c(n1)C(C)(C(=O)NC(C)C)CN(Cc1ccccc1)C2 (centres undefined)	inconclusive: 2.82 µM [inhibitor, full curve, poor fit]	–	–
COCc1nc(C2CCCN(C(=O)Nc3cc(C)cc(C)c3)C2)no1 (centres undefined)	–	–	inactive: -3.85%
Cc1nnc(N2CCC(C(=O)N3CCCCC3)CC2)c2nn(-c3ccccc3)c(C)c12	inconclusive: 8.91 µM [inhibitor, partial curve, poor fit]	–	–
Cc1ccc(C)c(S(=O)(=O)Nc2ccc3c(c2)CCCN3C(=O)c2cccs2)c1	–	–	inactive: -20.2%
COc1ccc(C(=O)N2CC(=O)N(c3ccc(C)cc3)CC2C)c(OC)n1 (centres undefined)	inconclusive: 0.251 µM [inhibitor, partial curve, poor fit]	–	–
O=C(O)c1cc(Br)cc(S(=O)(=O)NCc2ccccn2)c1	–	–	inactive: -2.18%
CC(=O)N1CC2(Cc3ccccc3N([S+](C)(=O)[O-])C2)C1	–	–	inactive: 12.8% [at 44.1 µM]
Fc1ccc([C@@H]2Nc3ccccc3[C@@H]3C=CC[C@@H]32)cc1	inconclusive: 10 µM [inhibitor, single point]	–	–
Cc1ccc(C(=O)N2CC(c3nnc(-c4ccc(C)cc4)o3)C3(CCOCC3)C2)cc1 (centres undefined)	inconclusive: 20 µM [inhibitor, single point]	–	–
CCN1CCCN(C(=O)c2cccnc2)CC12CCOCC2	–	–	inactive: -5.94%
CCc1nc2c(c(-c3ccc(O)cc3)n1)CCN(C(=O)Nc1ccccc1)CC2	inconclusive: 12.6 µM [inhibitor, single point]	–	–
COc1ccc(CCNC(=O)c2c[nH]n3c(=O)c(Cc4ccccc4Cl)c(C)nc23)cc1OC	active: 10 µM	–	–
COc1ccc(NC(=O)CC2CCCCN(C)C2=O)cc1OC (centres undefined)	–	–	inactive: -16.3%
CCn1c2c(c(=O)n3ncc(C(=O)Nc4ccc(OC(F)(F)F)cc4)c13)CN(Cc1ccc(OC)cc1)CC2	inconclusive: 14.1 µM [inhibitor, single point]	–	–
O=C(Nc1ccc(C(F)(F)F)cc1)N1CCC(n2cnnc2C2CC2)C1 (centres undefined)	inconclusive: 17.8 µM [inhibitor, single point]	–	–
Cc1noc(C)c1S(=O)(=O)N[C@@H]1CN(Cc2ccccc2)C[C@H]1CN(C)C	inconclusive: 2.51 µM [inhibitor, partial curve]	–	–
